Where “and” joins values, the source holds several entries; their conditions need not be identical. Equal entries are not always repeated. Out of some 150,000 compounds screened, about 6,500 (4.3%) were called active. The inconclusive results got no clear call from the source; some entries with a clear call stand among them for comparison. Calls come from the whole dose curve; as a rule, active = well fitted inhibition curve with a large enough effect (not every such curve was filed as active); inconclusive = small, poorly fitted or top-dose-only effect, or another doubt; inactive = no such curve, though single readings can be large or run the other way. Potencies beside an inconclusive call are fits to weak or partial responses and may not hold up.
What follows are molecules tested against 15-hydroxyprostaglandin dehydrogenase [NAD(+)] (Homo sapiens) (UniProt P15428) (assay: qHTS Assay for Inhibitors of HPGD (15-Hydroxyprostaglandin Dehydrogenase)). Conditions: purified HPGD, NADH fluorescence kinetic, PGE2 substrate; activity change, negative = inhibition: hits give low values.
Chain of UniProt P15428 (P15428 whole entry, looked up): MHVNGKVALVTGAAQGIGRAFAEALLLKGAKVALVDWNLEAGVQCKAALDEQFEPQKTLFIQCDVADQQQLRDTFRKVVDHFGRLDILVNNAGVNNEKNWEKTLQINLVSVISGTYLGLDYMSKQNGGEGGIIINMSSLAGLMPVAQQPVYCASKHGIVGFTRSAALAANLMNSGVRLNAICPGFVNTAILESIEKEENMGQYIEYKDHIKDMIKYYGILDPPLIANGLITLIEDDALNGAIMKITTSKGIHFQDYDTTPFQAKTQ
Summary of the method: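 NADH formation kinetics: reaction with 30 uM PGE2 and 1 mM NAD+ (final), 20 nM enzyme, Tris-HCl pH 8 with Tween 20, after 15 min compound preincubation at room temperature. Fluorescence change, last versus first of five reads.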
% is set by controls: 0 for no effect and ±100 for the full control effect; potency is the fitted concentration of half-maximal effect; tags give direction and shape of the fitted curve.

Potency, inconclusive:
Cn1c(C(=O)NCCN2CCc3ccccc3C2)cc2c(=O)n(C)c3ccccc3c21 22.4 µM [inhibitor, partial curve], CCOC(=O)c1c(NC(=O)CN2CCCCC2)sc2c1CCN(C(=O)OCC)C2 14.1 µM [inhibitor, partial curve], COC(=O)CSc1nc2sc3c(c2c(=O)n1-c1ccccc1)CCN(C)C3 17.8 µM [inhibitor, partial curve], N#Cc1c(N)nc2c(c1-c1ccncc1)CCCCC2 17.8 µM [inhibitor, partial curve], CCn1cnc2sc(C(=O)Nc3ccc4c(c3)OCO4)c(C)c2c1=O 31.6 µM [inhibitor, single point], COc1cccc(-n2nnc3c(=O)n(Cc4ccc(C)cc4)cnc32)c1 31.6 µM [inhibitor, single point], O=C(CSc1ncccn1)NCCc1ccccc1 31.6 µM [inhibitor, single point], Cc1cccc(S(=O)(=O)Nc2ccc(-c3cn4ccccc4n3)cc2)c1 17.8 µM [inhibitor, partial curve], COc1cc(/C=C2\OC(=O)c3c(OC)cccc32)ccc1O 12.6 µM [inhibitor, partial curve], CCCCCCSc1nnc(-c2cnn(-c3ccccc3)c2-n2cccc2)n1C 31.6 µM [inhibitor, single point], C/C(=N/NC(=O)c1cc(Cl)ccc1O)C12CC3CC(CC(C3)C1)C2 31.6 µM [inhibitor, partial curve], O=C(CSc1nc(-c2ccccc2)c(-c2ccccc2)[nH]1)N1CCN(S(=O)(=O)c2ccccc2)CC1 31.6 µM [inhibitor, partial curve], Cc1nc(Nc2ccncc2)c2oc3ccccc3c2n1 20 µM [inhibitor, partial curve], N#Cc1c(-c2cccs2)cc(-c2cccnc2)nc1N 28.2 µM [inhibitor, partial curve], O=[N+]([O-])c1ccc(O)c(C=Nc2ccc3nc(-c4ccccc4)[nH]c3c2)c1 7.94 µM [inhibitor, partial curve], CCN(CC)C(=O)c1c(-c2ccccc2)oc2ccc(OC)cc12 25.1 µM [inhibitor, partial curve], Cn1c(COc2ccccc2)nnc1SCc1cc(=O)[nH]c2ccccc12 22.4 µM [inhibitor, partial curve, poor fit], O=C(Nc1ccccc1-c1nnc(SCc2ccccc2)o1)c1ccccc1 39.8 µM [inhibitor, single point], CC1(C)CC(=O)c2c(O)cc(OCc3ccc(Br)cc3)cc2O1 35.5 µM [inhibitor, partial curve], Cc1ccc2nc(NC(=O)C3CCN(S(=O)(=O)c4ccc5c(c4)oc(=O)n5C)CC3)sc2c1 3.98 µM [inhibitor, partial curve], Cc1cc(=O)oc2cc(OCC(=O)NCc3ccco3)ccc12 12.6 µM [inhibitor, partial curve], Cc1cccn2c(=O)c3cc(C(=O)NCc4cccnc4)c(=N)n(C(C)C)c3nc12 31.6 µM [inhibitor, partial curve], COC(=O)c1c(S(N)(=O)=O)c2ccccc2n1C 31.6 µM [inhibitor, partial curve], COc1ccc(-c2nc(Cn3c(SCc4cccc(F)c4)nc4ccncc43)c(C)o2)cc1OC 25.1 µM [inhibitor, single point], COC(=O)c1sccc1-c1ccc(C(=O)Nc2cccc(Cl)c2)o1 39.8 µM [inhibitor, partial curve], Cc1c(Cc2ccc3c(c2)OCO3)sc(NC(=O)c2ccc3ccccc3c2)c1C(N)=O 11.2 µM [inhibitor, partial curve], O=C(CC1CC2CCC1C2)OCC(=O)c1c[nH]c2ccccc12 (stereo not drawn) 22.4 µM [inhibitor, single point], CCOC(=O)c1oc2nc3c(cc2c1N)COC(C)(C)C3 28.2 µM [inhibitor, single point], CC(C)(C)C(=O)[C@@H]1[C@@H]2C(=O)N(C3CCCCC3)C(=O)[C@@H]2[C@H]2c3ccccc3C=CN12 35.5 µM [inhibitor, single point], Cc1cc(=O)oc2c(CN3CCCCC3)c(O)c(Cl)cc12 3.98 µM [inhibitor, partial curve], Cc1nn2c(NCC(C)C)c3c(nc2c1-c1ccccc1)CCC3 25.1 µM [inhibitor, partial curve], COc1ccc(OC)c(NC(=O)CSc2nnc(-c3ccco3)n2-c2ccc(C(=O)O)cc2)c1 31.6 µM [inhibitor, partial curve], COC(=O)c1c(NC(=O)c2ccco2)sc2c1CCC2 8.91 µM [inhibitor, full curve], O=c1nc2n(c3sc4c(c13)CCCC4)C(CBr)CS2 (stereo not drawn) 31.6 µM [inhibitor, partial curve], Cc1ccc(CSCCNC(=O)CSc2ccccc2)cc1 31.6 µM [inhibitor, partial curve], CCc1ccc(C(=O)NC2CCCCC2)s1 31.6 µM [inhibitor, partial curve], CN(Cc1cnc2nc(N)nc(N)c2n1)c1ccc(C(=O)N[C@@H](CCC(=O)O)C(=O)O)cc1 25.1 µM [inhibitor, partial curve] and 35.5 µM [inhibitor, partial curve], Cc1ccc(/C=C2\SC(=S)N(CCC(=O)NNS(=O)(=O)c3ccc(C)cc3)C2=O)cc1 39.8 µM [inhibitor, partial curve], Cn1cnnc1SCC(=O)Nc1ccc2nc(SCc3ccccc3)sc2c1 20 µM [inhibitor, partial curve], COCCN(CCOC)c1nc(C)nc2c1nc(-c1ccccc1)n2CCCN1CCCCC1C (stereo not drawn) 28.2 µM [inhibitor, partial curve], Cc1ccc(O)c(CCc2ccccc2)n1 15.8 µM [inhibitor, partial curve], Cc1ccc(S(=O)(=O)N2CCN(c3nc(C(C)C)c4c(c3C#N)CC(C)(C)OC4)CC2)cc1 20 µM [inhibitor, partial curve]

Potency, active:
O=C(CSC1=NCCS1)Nc1ccc(S(=O)(=O)NC2CCCCC2)cc1 15.8 µM, Cc1ccc(SCCC(=O)N2CCCC2)cc1 14.1 µM, O=C1c2ccccc2S(=O)(=O)N1CC(O)Cn1c2ccccc2c2ccccc21 (stereo not drawn) 8.91 µM, Cc1ccsc1/C=N/n1c(-c2ccccn2)n[nH]c1=S 28.2 µM, COc1ccc(C(CCN(Cc2ccc(OC)c(OC)c2)C(=O)CCl)c2ccccc2)cc1 (stereo not drawn) 10 µM, N#Cc1c(NC(=O)Cn2nc(C(F)(F)F)c3c2CCCC3)sc2c1CCC2 8.91 µM, N#Cc1c(N)sc(=S)c2c1CCCCC2 15.8 µM, CNc1ccc(Br)cc(C(=O)/C=C/c2ccc(OC)cc2OC)c1=O 14.1 µM, O=C(Cc1cccs1)NC1C(=O)N2C(C(=O)[O-])=C(C[n+]3ccccc3)CSC12 (stereo not drawn) 31.6 µM, COc1ccc(OC)c(C2CC(=O)N3CN(c4cccc(Cl)c4C)CSC3=C2C#N)c1 (stereo not drawn) 7.94 µM, CCOC(=O)/C=C/C(=O)Nc1cccc([N+](=O)[O-])c1 1.58 µM

Activity change, negative = inhibition, inactive:
CC(C)C[C@@H](CC(=O)N[C@@H](CCCN)CC(=O)N[C@@H]1CCCC[C@H]1C(=O)N[C@H](CC(=O)N[C@@H](CCC(=O)O)CC(=O)O)Cc1c[nH]c2ccccc12)NC(=O)[C@@H]1CCCC[C@H]1N -7.55%, CO/N=C(/CS(=O)(=O)Cc1ccccc1Cl)c1ccc(Cl)cc1Cl -4.41%, Cc1cccc(C)c1NC(=O)N1C2CCCC1CC(NC(=O)C(C)(C)C)C2 (stereo not drawn) -1.54%, CC1CCN(C(=O)CSc2nc3ccccc3c(=O)n2Cc2ccc3c(c2)OCO3)CC1 -19.8%, COC(=O)[C@@H](NC(=O)N1CCc2nc(COc3ccccc3)c3c(c2C1)CO[C@@H](C)C3)C(C)C -6.14%, CCCC[C@@H](C=O)NC(=O)[C@H](CC(C)C)NC(=O)[C@H](CC(C)C)NC(C)=O 0.355%, CCCCOc1ccc(C(=O)NC)cc1 -2.81%, c1csc(Cc2nn3c(-c4ccncc4)nnc3s2)c1 -23%, COc1cccc(Nc2ccc(Nc3cccc(OC)c3)nn2)c1 -5.22%, O=C(O)c1ccc(NS(=O)(=O)Cc2ccccc2)cc1 -0.93%, COc1cc(OC)c2c(=O)c(-c3ccc4c(c3)OCO4)coc2c1 -3.37%, CC1(NC(=O)CC[N+](C)(C)CCO)CS(=O)(=O)CC1S(=O)(=O)[O-] (stereo not drawn) -3.85%, CCC(c1ccccc1)c1nc(-c2cccnc2)no1 (stereo not drawn) -14.8%, CCN(CC)S(=O)(=O)c1cccc(C(=O)N2CC(O)CC2C(=O)O)c1 (stereo not drawn) -14.7%, Cc1nc2nc(CCc3ccccc3)nn2c(C)c1Cl 0.115%
